Measurements published in patent US11198713B2, “Agents modulating beta-catenin functions and methods thereof” (FOG PHARMACEUTICALS, INC., priority 2017, dated 2021).
At least one peptide structure holds a part that was inferred or is arguable (an end, a ring closure or a residue). For at least one compound, name, drawing or mass did not settle the structure. Numbered stars: 1 amine (or outer) side, 2 acyl side, 3 side chain; on linkers, the order of the positions; unused ones are H or OH. Bridge positions count the residues as written; N and C are the ends. Square brackets hold non-standard residues; d marks the D form. Peptide text beside a SMILES is read from it. X12 = CN(CC=[*:3])CCC[C@@](C)(N[*:1])C(=O)[*:2]; X10 = CN(CC=[*:3])C[C@@](C)(N[*:1])C(=O)[*:2]; X11 = CN(CC=[*:3])C[C@](C)(N[*:1])C(=O)[*:2]; X6 = CN(CC=[*:3])CC[C@](C)(N[*:1])C(=O)[*:2]; X4 = O=C([C@]1(N[*:1])CCN(CC=[*:3])C1)[*:2]; X5 = C[C@](CCCCCC=[*:3])(N[*:1])C(=O)[*:2]; X7 = C[C@](CCCCC=[*:3])(N[*:1])C(=O)[*:2]; R8 = C=CCCCCCC[C@@](C)(N)C(=O)O; S8 = C=CCCCCCC[C@](C)(N)C(=O)O; S5 = C=CCCC[C@](C)(N)C(=O)O

How the values were obtained:
[1] = test system: TCF/LEF Luciferase reporter HEK293 cell lines; assay: TCF/LEF reporter assay; assay type: cell-based; settings: 10 μM; for TCF/LEF Reporter Inhibition at 10 μM: Table 2
[2] = molecular target: T1, full-length beta-catenin (Axin site) (Homo sapiens, UniProt P35222); assay: Competition fluorescence polarization assay (Axin site probe); assay type: binding
T1 construct: 15 nM full-length beta-catenin, 20 nM FITC labeled peptide in buffer
T1 sequence (P35222 1-781): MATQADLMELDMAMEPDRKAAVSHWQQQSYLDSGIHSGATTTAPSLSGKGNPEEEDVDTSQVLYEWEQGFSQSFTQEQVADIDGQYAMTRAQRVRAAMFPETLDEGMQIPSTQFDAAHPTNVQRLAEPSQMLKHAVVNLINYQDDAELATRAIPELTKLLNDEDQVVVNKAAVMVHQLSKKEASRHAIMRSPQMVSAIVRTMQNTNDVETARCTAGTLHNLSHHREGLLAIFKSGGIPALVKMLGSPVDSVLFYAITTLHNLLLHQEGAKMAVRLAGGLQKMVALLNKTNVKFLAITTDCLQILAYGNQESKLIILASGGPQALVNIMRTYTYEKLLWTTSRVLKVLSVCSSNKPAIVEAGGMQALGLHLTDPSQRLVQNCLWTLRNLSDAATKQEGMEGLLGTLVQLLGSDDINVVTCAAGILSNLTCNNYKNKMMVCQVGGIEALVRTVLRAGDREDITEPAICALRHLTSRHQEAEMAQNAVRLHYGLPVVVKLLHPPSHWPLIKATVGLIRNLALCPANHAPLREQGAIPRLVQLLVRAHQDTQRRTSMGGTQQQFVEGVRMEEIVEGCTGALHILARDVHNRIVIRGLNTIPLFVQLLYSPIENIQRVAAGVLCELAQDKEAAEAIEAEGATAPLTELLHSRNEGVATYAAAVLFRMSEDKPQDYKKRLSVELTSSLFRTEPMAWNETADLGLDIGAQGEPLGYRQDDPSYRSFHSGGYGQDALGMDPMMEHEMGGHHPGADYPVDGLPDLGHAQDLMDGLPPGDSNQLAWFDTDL
Description: FIG. 1. […] Peptide solutions were prepared in buffer (50 mM Tris pH 8.0, 250 mM NaCl, 2% glycerol, 0.5 mM EDTA, 0.02% w/v sodium azide) using a 3-fold serial dilution from 5 μM. Probe solution (15 nM full-length 13-Catenin, 20 nM FITC labeled peptide (FITC-PEG1-PQ-S5-ILD-S5-HVRRVWR (SEQ ID NO: 1) (hydrocarbon staple formed by two S5 via olefin metathesis)) in buffer) was prepared and incubated for 5 minutes, then 40 μL per well plated in a black polystyrene 384-well plate (Corning). Equal volume of the titrated peptide was added to the plate and incubated protected from light for 15 minutes prior to read. Reads were performed on a Spectramax M5 (Molecular Devices) in duplicate.
FIG. 7. […] BCL9 Competition FP assay: Peptide solutions were prepared in buffer (50 mM Tris pH 8.0, 250 mM NaCl, 2% glycerol, 0.5 mM EDTA, 0.02% w/v sodium azide) using a 3-fold serial dilution from 10 μM. Probe solution (250 nM full-length beta-catenin, 20 nM 5FAM labeled peptide in buffer) was prepared and 40 μL per well plated in a black polystyrene 384-well plate (Corning). Equal volume of the titrated peptide was added to the plate and incubated protected from light for 15 minutes prior to read. Reads were performed on a Spectramax M5 (Molecular Devices) in duplicate. Probe: Ac-[…]nLeu-Leu-2NapA-bala-bala-Lys5FAM-NH2 (SEQ ID NO: 2) (from Biochemistry, 2009, 48 (40), pp 9534-9541). Axin Competition FP assay: Peptide solutions were prepared in buffer (50 mM Tris pH 8.0, 250 mM NaCl, 2% glycerol, 0.5 mM EDTA, 0.02% w/v sodium azide) using a 3-fold serial dilution from 5 μM. Probe solution (15 nM full-length beta-catenin, 20 nM FITC labeled peptide in buffer) was prepared and incubated for 5 minutes, then 40 μL per well plated in a black polystyrene 384-well plate (Corning). Equal volume of the titrated peptide was added to the plate and incubated protected from light for 15 minutes prior to read. Reads were performed on a Spectramax M5 (Molecular Devices) in duplicate. Probe: FITC-StAx-33 from Grossmann et al. PNAS 109 17942-17947.

[3] = Table 3 Part A, carbamate-stapled peptides
[4] = Table 3 Part B, amino-stapled product

| SMILES | Beta-Catenin Luciferase Reporter % Inhibition at 10 μM ([1]; Table 3 Part A) [%] | Target Binding [2, 3] | TCF/LEF Reporter Inhibition at 10 μM [1] [%] | Beta-Catenin Luciferase Reporter % Inhibition at 10 μM [1, 4] [%] | Target Binding [2, 4] | potency in the competition FP assay compared with Isomer 2 ([2]; reduced peptide) |
| --- | --- | --- | --- | --- | --- | --- |
| CC[C@H](C)[C@@H]1NC(=O)[C@H](Cc2c[nH]cn2)NC(=O)[C@H](C)NC(=O)[C@H](CC(=O)O)NC(=O)[C@H](CC(C)C)NC(=O)[C@H]([C@@H](C)CC)NC(=O)[C@](C)(NC(=O)[C@H](C)NC(C)=O)CCCN(C)C(=O)OCC=CCCC[C@@](C)(C(=O)N[C@@H](CCCNC(=N)N)C(=O)N[C@H](C(=O)N[C@@H](Cc2c[nH]c3ccccc23)C(N)=O)C(C)C)NC1=O (single isomer, unassigned) [FP0506c, Ac-A-MI-I-L-D-A-H-I-S5-R-V-W-NH2] | 36 | Yes |  |  |  |  |
| CC[C@H](C)[C@@H]1NC(=O)[C@H](Cc2c[nH]cn2)NC(=O)[C@H](C)NC(=O)[C@H](CC(=O)O)NC(=O)[C@H](CC(C)C)NC(=O)[C@H]([C@@H](C)CC)NC(=O)[C@](C)(NC(=O)[C@H](C)NC(C)=O)CCCCCCC=CCN2CC[C@@](C(=O)N[C@@H](CCCNC(=N)N)C(=O)N[C@H](C(=O)N[C@@H](Cc3c[nH]c4ccccc34)C(N)=O)C(C)C)(C2)NC1=O [FP0217a, Ac-A-R8-I-L-D-A-H-I-MB-R-V-W-NH2] (Ac-A[R8]ILDAHI[X4]RVW-NH2; staple 2-9) |  |  | 0 | 0 | No |  |
| CC[C@H](C)[C@@H]1NC(=O)[C@H](Cc2c[nH]cn2)NC(=O)[C@H](C)NC(=O)[C@H](CC(=O)O)NC(=O)[C@H](CC(C)C)NC(=O)[C@H]([C@@H](C)CC)NC(=O)[C@](C)(NC(=O)[C@H](C)NC(C)=O)CN(C)CC=CCCCCCC[C@@](C)(C(=O)N[C@@H](CCCNC(=N)N)C(=O)N[C@H](C(=O)N[C@@H](Cc2c[nH]c3ccccc23)C(N)=O)C(C)C)NC1=O [FP0335a, Ac-A-ME-I-L-D-A-H-I-S8-R-V-W-NH2] (Ac-A[X10]ILDAHI[S8]RVW-NH2; staple 2-9) |  |  | 0 | 0 | Yes |  |
| CC[C@H](C)[C@@H]1NC(=O)[C@H](Cc2c[nH]cn2)NC(=O)[C@H](C)NC(=O)[C@H](CC(=O)O)NC(=O)[C@H](CC(C)C)NC(=O)[C@H]([C@@H](C)CC)NC(=O)[C@](C)(NC(=O)[C@H](C)NC(C)=O)CCCCCCC=CCOC(=O)N(C)C[C@@](C)(C(=O)N[C@@H](CCCNC(=N)N)C(=O)N[C@H](C(=O)N[C@@H](Cc2c[nH]c3ccccc23)C(N)=O)C(C)C)NC1=O [FP0338c, Ac-A-R8-I-L-D-A-H-I-MD-R-V-W-NH2] | 30 | Yes | 36 |  |  |  |
| CC[C@H](C)[C@@H]1NC(=O)[C@H](Cc2c[nH]cn2)NC(=O)[C@H](C)NC(=O)[C@H](CC(=O)O)NC(=O)[C@H](CC(C)C)NC(=O)[C@H]([C@@H](C)CC)NC(=O)[C@](C)(NC(=O)[C@H](C)NC(C)=O)CCCCCC=CCN(C)C[C@@](C)(C(=O)N[C@@H](CCCNC(=N)N)C(=O)N[C@H](C(=O)N[C@@H](Cc2c[nH]c3ccccc23)C(N)=O)C(C)C)NC1=O [FP0495a, Ac-A-R7-I-L-D-A-H-I-MD-R-V-W-NH2] (Ac-A[X5]ILDAHI[X11]RVW-NH2; staple 2-9) |  |  | 18 | 18 | Yes |  |
| CC[C@H](C)[C@@H]1NC(=O)[C@H](Cc2c[nH]cn2)NC(=O)[C@H](C)NC(=O)[C@H](CC(=O)O)NC(=O)[C@H](CC(C)C)NC(=O)[C@H]([C@@H](C)CC)NC(=O)[C@](C)(NC(=O)[C@H](C)NC(C)=O)CCCCCC=CCOC(=O)N(C)C[C@@](C)(C(=O)N[C@@H](CCCNC(=N)N)C(=O)N[C@H](C(=O)N[C@@H](Cc2c[nH]c3ccccc23)C(N)=O)C(C)C)NC1=O [FP0495c, Ac-A-R7-I-L-D-A-H-I-MD-R-V-W-NH2] | 20 | Yes | 20 |  |  |  |
| CC[C@H](C)[C@@H]1NC(=O)[C@H](Cc2c[nH]cn2)NC(=O)[C@H](C)NC(=O)[C@H](CC(=O)O)NC(=O)[C@H](CC(C)C)NC(=O)[C@H]([C@@H](C)CC)NC(=O)[C@](C)(NC(=O)[C@H](C)NC(C)=O)CCCC=CCOC(=O)N(C)CC[C@@](C)(C(=O)N[C@@H](CCCNC(=N)N)C(=O)N[C@H](C(=O)N[C@@H](Cc2c[nH]c3ccccc23)C(N)=O)C(C)C)NC1=O [FP0501c, Ac-A-R5-I-L-D-A-H-I-MF-R-V-W-NH2] | 33 | Yes | 33 |  |  |  |
| CC[C@H](C)[C@@H]1NC(=O)[C@H](Cc2c[nH]cn2)NC(=O)[C@H](C)NC(=O)[C@H](CC(=O)O)NC(=O)[C@H](CC(C)C)NC(=O)[C@H]([C@@H](C)CC)NC(=O)[C@](C)(NC(=O)[C@H](C)NC(C)=O)CCCCC=CCN(C)CC[C@@](C)(C(=O)N[C@@H](CCCNC(=N)N)C(=O)N[C@H](C(=O)N[C@@H](Cc2c[nH]c3ccccc23)C(N)=O)C(C)C)NC1=O [FP0502a, Ac-A-R6-I-L-D-A-H-I-MF-R-V-W-NH2] (Ac-A[X7]ILDAHI[X6]RVW-NH2; staple 2-9) |  |  | 49 | 49 | No |  |
| CC[C@H](C)[C@@H]1NC(=O)[C@H](Cc2c[nH]cn2)NC(=O)[C@H](C)NC(=O)[C@H](CC(=O)O)NC(=O)[C@H](CC(C)C)NC(=O)[C@H]([C@@H](C)CC)NC(=O)[C@](C)(NC(=O)[C@H](C)NC(C)=O)CCCCCC=CCN(C)CC[C@@](C)(C(=O)N[C@@H](CCCNC(=N)N)C(=O)N[C@H](C(=O)N[C@@H](Cc2c[nH]c3ccccc23)C(N)=O)C(C)C)NC1=O [FP0503a, Ac-A-R7-I-L-D-A-H-I-MF-R-V-W-NH2] (Ac-A[X5]ILDAHI[X6]RVW-NH2; staple 2-9) |  |  | 32 | 32 | Yes |  |
| CC[C@H](C)[C@@H]1NC(=O)[C@H](Cc2c[nH]cn2)NC(=O)[C@H](C)NC(=O)[C@H](CC(=O)O)NC(=O)[C@H](CC(C)C)NC(=O)[C@H]([C@@H](C)CC)NC(=O)[C@](C)(NC(=O)[C@H](C)NC(C)=O)CCCCCC=CCOC(=O)N(C)CC[C@@](C)(C(=O)N[C@@H](CCCNC(=N)N)C(=O)N[C@H](C(=O)N[C@@H](Cc2c[nH]c3ccccc23)C(N)=O)C(C)C)NC1=O [FP0503c, Ac-A-R7-I-L-D-A-H-I-MF-R-V-W-NH2] | 10 | Yes | 10 |  |  |  |
| CC[C@H](C)[C@@H]1NC(=O)[C@H](Cc2c[nH]cn2)NC(=O)[C@H](C)NC(=O)[C@H](CC(=O)O)NC(=O)[C@H](CC(C)C)NC(=O)[C@H]([C@@H](C)CC)NC(=O)[C@](C)(NC(=O)[C@H](C)NC(C)=O)CCCN(C)CC=CCCC[C@@](C)(C(=O)N[C@@H](CCCNC(=N)N)C(=O)N[C@H](C(=O)N[C@@H](Cc2c[nH]c3ccccc23)C(N)=O)C(C)C)NC1=O [FP0506a, Ac-A-MI-I-L-D-A-H-I-S5-R-V-W-NH2] (Ac-A[X12]ILDAHI[S5]RVW-NH2; staple 2-9) |  |  |  | 0 | No |  |
| CC[C@H](C)[C@@H]1NC(=O)[C@H](Cc2c[nH]cn2)NC(=O)[C@H](C)NC(=O)[C@H](CC(=O)O)NC(=O)[C@H](CC(C)C)NC(=O)[C@H]([C@@H](C)CC)NC(=O)[C@](C)(NC(=O)[C@H](C)NC(C)=O)CCCCCCCCCOC(=O)N2CC[C@@](C(=O)N[C@@H](CCCNC(=N)N)C(=O)N[C@H](C(=O)N[C@@H](Cc3c[nH]c4ccccc34)C(N)=O)C(C)C)(C2)NC1=O [FPO217rc] |  |  |  |  |  | equivalent to Isomer 2 |
